Experimental data: ChEMBL document CHEMBL1201862, “PubChem BioAssay data set” (2004)
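Each compound was tested at five concentrations against cells in 96-well plates for 48 hours. Abbreviation: GI50, concentration required for 50% inhibition of growth.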 Calls of active or inactive are those of the source. Rule as the data show it: active = GI50 up to about 1.1 µM and inactive = higher.

How the values were obtained:
Experiment in all cases: NCI tumour cell line growth inhibition, 48 h
NCI-H522 = tested on: NCI-H522
MDA-MB-435 = tested on: MDA-MB-435
MCF7 = tested on: MCF7
SW-620 = tested on: SW-620
HCT-15 = tested on: HCT-15
SNB-75 = tested on: SNB-75
HT-29 = tested on: HT-29
SK-MEL-28 = tested on: SK-MEL-28
KM12 = tested on: KM12
CAKI-1 = tested on: CAKI-1
SF-295 = tested on: SF-295
HOP-62 = tested on: HOP-62
ACHN = tested on: ACHN
CCRF-CEM = tested on: CCRF-CEM
NCI-H226 = tested on: NCI-H226
SF-268 = tested on: SF-268
TK-10 = tested on: TK-10
HCC 2998 = tested on: HCC 2998
NCI-H460 = tested on: NCI-H460
OVCAR-5 = tested on: OVCAR-5
K562 = tested on: K562
A498 = tested on: A498
UO-31 = tested on: UO-31
SK-MEL-5 = tested on: SK-MEL-5
MOLT-4 = tested on: MOLT-4
OVCAR-8 = tested on: OVCAR-8
SF-539 = tested on: SF-539
HCT-116 = tested on: HCT-116
Hs-578T = tested on: Hs-578T
BT-549 = tested on: BT-549
DU-145 = tested on: DU-145
MDA-N = tested on: MDA-N
SN12C = tested on: SN12C
UACC-257 = tested on: UACC-257
NCI/ADR-RES = tested on: NCI/ADR-RES
RPMI-8226 = tested on: RPMI-8226
SR = tested on: SR
MDA-MB-231 = tested on: MDA-MB-231
HL-60 = tested on: HL-60
U-251 = tested on: U-251
IGROV-1 = tested on: IGROV-1
Malme-3M = tested on: Malme-3M
OVCAR-3 = tested on: OVCAR-3
OVCAR-4 = tested on: OVCAR-4
HOP-92 = tested on: HOP-92
A549 = tested on: A549
LOX IMVI = tested on: LOX IMVI
PC-3 = tested on: PC-3
COLO 205 = tested on: COLO 205
RXF 393 = tested on: RXF 393
786-0 = tested on: 786-0
EKVX = tested on: EKVX
SNB-19 = tested on: SNB-19

What does the source list for `Cc1ccc2[nH]c3c(c2c1)CC(=O)Nc1ccccc1-3`?
GI50 (NCI-H522): inactive: > 100 µM; GI50 (MDA-MB-435): inactive: > 100 µM; GI50 (MCF7): inactive: > 100 µM; GI50 (SW-620): inactive: > 100 µM; GI50 (HCT-15): > 100 µM; GI50 (SNB-75): inactive: > 100 µM; GI50 (HT-29): inactive: > 100 µM; GI50 (SK-MEL-28): inactive: > 100 µM; GI50 (KM12): inactive: > 100 µM; GI50 (CAKI-1): inactive: > 100 µM; GI50 (SF-295): inactive: > 100 µM; GI50 (HOP-62): inactive: > 100 µM; GI50 (ACHN): inactive: > 100 µM; GI50 (CCRF-CEM): inactive: > 100 µM; GI50 (NCI-H226): inactive: > 100 µM; GI50 (SF-268): inactive: > 100 µM; GI50 (TK-10): inactive: > 100 µM; GI50 (HCC 2998): inactive: > 100 µM; GI50 (NCI-H460): inactive: > 100 µM; GI50 (OVCAR-5): inactive: > 100 µM; GI50 (K562): inactive: > 100 µM; GI50 (A498): inactive: > 100 µM; GI50 (UO-31): inactive: > 100 µM; GI50 (SK-MEL-5): inactive: 5.87 µM; GI50 (MOLT-4): inactive: > 100 µM; GI50 (OVCAR-8): inactive: > 100 µM; GI50 (SF-539): inactive: > 100 µM; GI50 (HCT-116): inactive: > 100 µM; GI50 (Hs-578T): inactive: > 100 µM; GI50 (BT-549): inactive: > 100 µM; GI50 (DU-145): inactive: > 100 µM; GI50 (MDA-N): inactive: > 100 µM; GI50 (SN12C): inactive: > 100 µM; GI50 (UACC-257): inactive: > 100 µM; GI50 (NCI/ADR-RES): inactive: > 100 µM; GI50 (RPMI-8226): inactive: > 100 µM; GI50 (SR): inactive: > 100 µM; GI50 (MDA-MB-231): inactive: > 100 µM; GI50 (HL-60): inactive: > 100 µM; GI50 (U-251): inactive: > 100 µM; GI50 (IGROV-1): inactive: > 100 µM; GI50 (Malme-3M): inactive: > 100 µM; GI50 (OVCAR-3): inactive: > 100 µM; GI50 (OVCAR-4): inactive: > 100 µM; GI50 (HOP-92): inactive: > 100 µM; GI50 (A549): inactive: 32.5 µM; GI50 (LOX IMVI): inactive: > 100 µM; GI50 (PC-3): inactive: > 100 µM; GI50 (COLO 205): inactive: > 100 µM; GI50 (RXF 393): inactive: > 100 µM; GI50 (786-0): inactive: > 100 µM; GI50 (EKVX): inactive: > 100 µM; GI50 (SNB-19): inactive: > 100 µM
